In publication PMC6430795, “Complex formation of APP with GABAB receptors links axonal trafficking to amyloidogenic processing” (Nature Communications, 2019):
These are yes or no findings as the source states them, for the method shown. In cells and extracts the contact can be indirect. Some binding calls cover weakened binding; strength is not graded here.

By UniProt entry, the sequences of proteins in these tests, tags left out. Where a name states a change or a piece, a line headed by the entry shows the natural chain unless it says otherwise. Residues count along the entry.
UniProt Q9Z0U4, residues 20-960: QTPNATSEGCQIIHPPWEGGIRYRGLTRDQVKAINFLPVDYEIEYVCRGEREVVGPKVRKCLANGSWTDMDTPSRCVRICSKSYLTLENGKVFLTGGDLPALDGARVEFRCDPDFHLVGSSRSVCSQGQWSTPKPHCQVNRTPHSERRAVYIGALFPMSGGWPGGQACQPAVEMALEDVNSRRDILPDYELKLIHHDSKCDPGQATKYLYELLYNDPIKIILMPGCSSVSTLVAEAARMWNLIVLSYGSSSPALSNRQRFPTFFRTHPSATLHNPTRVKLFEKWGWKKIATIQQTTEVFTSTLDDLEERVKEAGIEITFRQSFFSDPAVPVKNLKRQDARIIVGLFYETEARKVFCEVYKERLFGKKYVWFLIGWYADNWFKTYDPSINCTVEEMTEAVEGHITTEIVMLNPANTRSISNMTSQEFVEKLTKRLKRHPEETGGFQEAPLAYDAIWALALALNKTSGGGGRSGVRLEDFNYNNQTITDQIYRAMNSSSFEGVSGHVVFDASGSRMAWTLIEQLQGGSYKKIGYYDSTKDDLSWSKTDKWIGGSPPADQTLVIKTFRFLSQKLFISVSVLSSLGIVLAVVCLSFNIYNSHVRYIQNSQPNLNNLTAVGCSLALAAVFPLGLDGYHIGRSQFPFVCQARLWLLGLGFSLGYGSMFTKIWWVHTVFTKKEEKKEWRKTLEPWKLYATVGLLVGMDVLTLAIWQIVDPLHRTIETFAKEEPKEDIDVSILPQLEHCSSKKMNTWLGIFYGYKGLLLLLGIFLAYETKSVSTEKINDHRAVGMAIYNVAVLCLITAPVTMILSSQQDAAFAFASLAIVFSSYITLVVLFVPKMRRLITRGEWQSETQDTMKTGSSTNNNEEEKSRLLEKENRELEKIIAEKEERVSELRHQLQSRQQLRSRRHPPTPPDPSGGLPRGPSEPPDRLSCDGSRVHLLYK
UniProt Q9WV18: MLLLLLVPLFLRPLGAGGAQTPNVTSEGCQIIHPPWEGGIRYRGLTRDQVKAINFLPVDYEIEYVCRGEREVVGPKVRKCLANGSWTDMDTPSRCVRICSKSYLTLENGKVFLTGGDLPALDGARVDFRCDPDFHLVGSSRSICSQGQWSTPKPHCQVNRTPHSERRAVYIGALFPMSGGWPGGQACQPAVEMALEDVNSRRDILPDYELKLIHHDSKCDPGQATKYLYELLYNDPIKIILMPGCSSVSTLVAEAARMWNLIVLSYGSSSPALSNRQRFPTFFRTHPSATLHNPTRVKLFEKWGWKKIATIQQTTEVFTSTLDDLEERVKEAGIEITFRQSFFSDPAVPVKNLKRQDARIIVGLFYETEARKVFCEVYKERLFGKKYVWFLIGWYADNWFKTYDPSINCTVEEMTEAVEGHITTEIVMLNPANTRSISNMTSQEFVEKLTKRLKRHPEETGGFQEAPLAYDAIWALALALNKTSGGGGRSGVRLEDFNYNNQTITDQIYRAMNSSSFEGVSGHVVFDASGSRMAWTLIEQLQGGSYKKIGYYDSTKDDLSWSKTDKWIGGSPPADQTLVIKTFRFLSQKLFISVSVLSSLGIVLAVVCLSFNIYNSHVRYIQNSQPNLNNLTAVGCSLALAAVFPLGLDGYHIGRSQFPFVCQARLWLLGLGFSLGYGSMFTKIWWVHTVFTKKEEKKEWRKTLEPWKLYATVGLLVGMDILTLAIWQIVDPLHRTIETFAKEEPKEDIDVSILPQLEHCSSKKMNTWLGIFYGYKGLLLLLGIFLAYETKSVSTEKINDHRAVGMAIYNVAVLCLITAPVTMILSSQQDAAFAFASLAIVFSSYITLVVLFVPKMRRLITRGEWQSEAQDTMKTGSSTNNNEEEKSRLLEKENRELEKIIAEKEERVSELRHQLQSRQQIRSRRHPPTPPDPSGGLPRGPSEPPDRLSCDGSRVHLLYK

Experiments:
[1] = biological target: Myc-GB1a (UniProt Q9Z0U4); test: co-IP; transfected HEK293 cells lysed in NETN buffer 24 h after transfection; antibodies (anti-Myc, anti-Flag and others) on Protein-G/A agarose; immunoblot
[2] = biological target: T1, adherence-junction associated protein 1 (AJAP-1), native (mouse (endogenous in brain)) (UniProt A2ALI5); test: co-IP; mouse brain membrane fragments in NET buffer, untreated or treated with 1 mM GABA or 4 µM CGP54626 for 1 h, 0.5% Nonidet P-40; IP with anti-APP (Y188), anti-AJAP-1 or anti-PIANP for 16 h at 4 °C; GB1a read on immunoblots
T1 sequence: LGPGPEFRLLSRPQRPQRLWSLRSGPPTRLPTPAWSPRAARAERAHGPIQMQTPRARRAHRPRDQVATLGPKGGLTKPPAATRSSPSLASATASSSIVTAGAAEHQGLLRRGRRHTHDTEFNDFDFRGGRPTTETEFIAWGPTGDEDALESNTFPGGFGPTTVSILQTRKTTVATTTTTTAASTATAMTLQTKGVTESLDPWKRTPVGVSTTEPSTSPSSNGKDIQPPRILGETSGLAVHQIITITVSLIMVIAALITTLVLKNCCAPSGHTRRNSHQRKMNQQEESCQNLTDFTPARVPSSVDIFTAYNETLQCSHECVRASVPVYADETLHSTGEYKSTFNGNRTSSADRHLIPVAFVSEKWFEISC

[3] = biological target: T2, PILRα-associated neural protein (PIANP), native (mouse (endogenous in brain)) (UniProt Q6P1B3); test: as above
T2 sequence: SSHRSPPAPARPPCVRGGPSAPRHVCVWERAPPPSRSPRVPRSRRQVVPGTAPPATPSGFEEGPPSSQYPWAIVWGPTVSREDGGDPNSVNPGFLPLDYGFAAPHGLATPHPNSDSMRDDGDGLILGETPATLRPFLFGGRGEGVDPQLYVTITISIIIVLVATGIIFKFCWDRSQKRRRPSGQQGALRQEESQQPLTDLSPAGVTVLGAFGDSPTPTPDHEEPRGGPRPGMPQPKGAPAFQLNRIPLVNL

Molecule	binding [1]	binding [2]	binding [3]
APP with residues 202–219 deleted (from UniProt P05067-4 18-695)	no binding	–	–
native GABAB receptors (GBRs), GB1a/2 (from UniProt Q9WV18 20-960; Q80T41 41-940) (complex)	–	binds	binds
AJAP-1 (in pcDNA3) (protein, UniProt A2ALI5 44-412) LGPGPEFRLLSRPQRPQRLWSLRSGPPTRLPTPAWSPRAARAERAHGPIQMQTPRARRAHRPRDQVATLGPKGGLTKPPAATRSSPSLASATASSSIVTAGAAEHQGLLRRGRRHTHDTEFNDFDFRGGRPTTETEFIAWGPTGDEDALESNTFPGGFGPTTVSILQTRKTTVATTTTTTAASTATAMTLQTKGVTESLDPWKRTPVGVSTTEPSTSPSSNGKDIQPPRILGETSGLAVHQIITITVSLIMVIAALITTLVLKNCCAPSGHTRRNSHQRKMNQQEESCQNLTDFTPARVPSSVDIFTAYNETLQCSHECVRASVPVYADETLHSTGEYKSTFNGNRTSSADRHLIPVAFVSEKWFEISC	binds	–	–
AJAP-1 with residues 181–186 replaced with alanine (protein, UniProt A2ALI5 44-412) LGPGPEFRLLSRPQRPQRLWSLRSGPPTRLPTPAWSPRAARAERAHGPIQMQTPRARRAHRPRDQVATLGPKGGLTKPPAATRSSPSLASATASSSIVTAGAAEHQGLLRRGRRHTHDTEFNDFDFRGGRPTTETEFAAAAAAGDEDALESNTFPGGFGPTTVSILQTRKTTVATTTTTTAASTATAMTLQTKGVTESLDPWKRTPVGVSTTEPSTSPSSNGKDIQPPRILGETSGLAVHQIITITVSLIMVIAALITTLVLKNCCAPSGHTRRNSHQRKMNQQEESCQNLTDFTPARVPSSVDIFTAYNETLQCSHECVRASVPVYADETLHSTGEYKSTFNGNRTSSADRHLIPVAFVSEKWFEISC	no binding	–	–
